Data reported in the supplement of paper PMC9446081.
Hit rate of the full screen: of about 39,000 compounds, about 220 (0.56%) showed activity. The list shows a part of the results.

Test system: Escherichia coli K-12 BW25113
Assay: relative growth (OD600 normalised to plate interquartile mean) (fraction); higher = less growth inhibition, active = 0.2 or less
Details: 50 µM; LB; incubation time: overnight (16-24 h)
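Also: static incubation at 37 °C against the wild-type strain, values averaged over two biological replicates.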

Row | Structure (SMILES) | relative growth
1 | COc1ccc2c(c1)c(-c1cccc(C)c1)nn2-c1ccccc1 | inactive: 0.989
2 | C[C@H]1CN([C@@H](C)CO)C(=O)Cc2cc(NC(=O)CCCCCC(=O)Nc3ccccc3N)ccc2O[C@@H]1CN(C)CC1CCCCC1 | inactive: 0.854
3 | COc1ccc(CN(C)C[C@H]2Oc3c(NS(=O)(=O)c4cn(C)cn4)cccc3C(=O)N([C@H](C)CO)C[C@H]2C)cc1 | inactive: 0.999
4 | C[C@@H]1CCCCO[C@H](CN(C)C(=O)Cc2ccccc2)[C@@H](C)CN([C@H](C)CO)C(=O)c2cc(NC(=O)Cc3ccccc3)ccc2O1 | inactive: 1.01
5 | C[C@H]1CN([C@@H](C)CO)C(=O)Cc2cc(NS(=O)(=O)c3ccc(F)cc3)ccc2O[C@H]1CN(C)Cc1ccc(-c2ccccc2)cc1 | inactive: 0.941
6 | Nc1c(O)cccc1C(=O)O | inactive: 1.02
7 | COCC#Cc1ccc2c(c1)O[C@H](CN(C)C(=O)Nc1ccc(OC)cc1)[C@H](C)CN([C@H](C)CO)S2(=O)=O | inactive: 0.994
8 | CCCNC(=O)N[C@@H]1C=C[C@H](CC(=O)N2CCN(C)CC2)O[C@H]1CO | inactive: 1.02
9 | C[C@@H]1O[C@@H](O[C@H]2[C@H](O)[C@@H](O)[C@H](OC[C@H]3O[C@@H](OC(=O)[C@]45CCC(C)(C)C[C@@H]4C4=CC[C@H]6[C@@]7(C)CC[C@H](O[C@H]8OC[C@H](O)[C@H](O)[C@H]8O[C@H]8O[C@@H](C)[C@H](O)[C@@H](O)[C@H]8O)[C@@](C)(CO)[C@@H]7CC[C@@]6(C)[C@]4(C)CC5)[C@H](O)[C@@H](O)[C@@H]3O)O[C@@H]2CO)[C@H](O)[C@H](O)[C@H]1O | inactive: 1.04
10 | Cc1noc(C)c1S(=O)(=O)Nc1cccc2c1O[C@@H](CN(C)S(=O)(=O)c1ccc(F)cc1)[C@@H](C)CN([C@@H](C)CO)C2=O | inactive: 1.02
11 | COc1ccc(NC(=O)N(C)C[C@@H]2OCCCC[C@H](C)Oc3ccc(NC(=O)Nc4ccccc4)cc3C(=O)N([C@@H](C)CO)C[C@@H]2C)cc1 | inactive: 1.02
12 | CC(C)NC(=O)N(C)C[C@@H]1Oc2ccc(NC(=O)CCCN(C)C)cc2CC(=O)N([C@@H](C)CO)C[C@H]1C | inactive: 0.978
13 | C[C@@H]1CN([C@@H](C)CO)C(=O)Cc2cc(NC(=O)Nc3ccc4c(c3)OCO4)ccc2O[C@@H]1CN(C)C(=O)Nc1cccc2ccccc12 | inactive: 0.989
14 | C[C@@H]1CN([C@@H](C)CO)C(=O)c2cc(NC(=O)CCC(F)(F)F)ccc2O[C@H]1CN(C)C(=O)Nc1cccc2ccccc12 | inactive: 1
15 | CN1C(=O)N[C@@H]2c3ccccc3O[C@@]1(COC(=O)NCCCCCC(=O)NO)[C@@H]2COC(=O)c1ccccc1 | inactive: 0.972
16 | C[C@@H]1CCCCO[C@@H](CN(C)C(=O)c2ccncc2)[C@H](C)CN([C@@H](C)CO)C(=O)c2cc(NC(=O)NC3CCCCC3)ccc2O1 | inactive: 1.02
17 | C[C@@H]1CN([C@@H](C)CO)S(=O)(=O)c2ccc(C#CC3CC3)cc2O[C@H]1CN(C)Cc1cccc(F)c1 | inactive: 1.02
18 | COc1ccc(NC(=O)Nc2ccc3c(c2)C(=O)N([C@H](C)CO)C[C@@H](C)[C@@H](CN(C)S(=O)(=O)c2cccs2)OCCCC[C@@H](C)O3)cc1 | inactive: 1.02
19 | O=C(NCCCN1CCOCC1)[C@H]1[C@@H]2C=C[C@@]3(CN(Cc4cccs4)C(=O)[C@@H]13)O2 | inactive: 1.04
20 | Cc1noc(C)c1NC(=O)N(C)C[C@H]1OCCCC[C@@H](C)Oc2ccc(NC(=O)Cc3ccccc3)cc2C(=O)N([C@H](C)CO)C[C@@H]1C | inactive: 0.986
21 | C[C@H]1CC=CC[C@H](c2cccc(Cl)c2)NC(=O)[C@H](Cc2ccccc2)N(C)C(=O)c2ccccc2O1 | inactive: 1.04

Row | Structure (SMILES) | relative growth
22 | COc1ccccc1C#Cc1ccc2c(c1)O[C@@H](CN(C)Cc1cncnc1)[C@@H](C)CN([C@@H](C)CO)S2(=O)=O | inactive: 1.04
23 | O=C1COc2cccnc2N1 | inactive: 1.03
24 | NCC(=O)O | inactive: 1.02
25 | O=C(C[C@H]1CC[C@H]2NC[C@H](O)COC[C@@H]2O1)NCCN1CCCCC1 | inactive: 1.01
26 | COc1ccc(NC(=O)Nc2cccc3c2O[C@@H](CN(C)Cc2ccc(Cl)c(Cl)c2)[C@H](C)CN([C@H](C)CO)C3=O)cc1 | inactive: 0.999
27 | Cc1ccc(S(=O)(=O)Nc2ccc3c(c2)C(=O)N([C@H](C)CO)C[C@H](C)[C@@H](CN(C)C(=O)c2ccccc2)OCCCC[C@@H](C)O3)cc1 | inactive: 0.988
28 | C[C@H](CO)N1C[C@H](C)[C@@H](CN(C)C(=O)Nc2ccc3c(c2)OCO3)Oc2c(NC(=O)c3cnccn3)cccc2C1=O | inactive: 0.983
29 | CC(=O)NCC(=O)O.CC(=O)NCC(=O)O.N=C(N)c1ccc(N=NNc2ccc(C(=N)N)cc2)cc1 | inactive: 1.01
30 | Cn1c(=O)[nH]c2ccccc21 | inactive: 1.03
31 | NNc1ccc2[nH]c(=O)[nH]c2c1 | inactive: 1.01
32 | C[C@H](CO)N1C[C@H](C)[C@H](CN(C)C(=O)Nc2ccc(F)cc2)OCCCC[C@H](C)Oc2ccc(NC(=O)Nc3ccccc3)cc2C1=O | inactive: 1.03
33 | COCC#Cc1ccc([C@@H]2[C@H]3CN(C(=O)c4cccnc4)CC(=O)N3[C@H]2CO)cc1 | inactive: 0.935
34 | O=C(C[C@@H]1CC[C@H](NS(=O)(=O)c2ccc(F)cc2)[C@@H](CO)O1)N1CCC(Cc2ccccc2)CC1 | inactive: 0.993
35 | Cc1ccc(S(=O)(=O)N2C[C@H](O)COC[C@H]3O[C@@H](CC(=O)NCc4ccc(Cl)c(Cl)c4)CC[C@@H]32)cc1 | inactive: 1.01
36 | COc1ccc(S(=O)(=O)Nc2ccc3c(c2)C(=O)N([C@H](C)CO)C[C@@H](C)[C@H](CN(C)S(=O)(=O)c2cn(C)cn2)O3)cc1 | inactive: 0.991
37 | COc1ccc2c3c(n(c2c1)C)[C@@H](CO)N(C[C@]13CCN(CC1)S(=O)(=O)c1ccccc1)C(=O)c1cccnc1 | inactive: 1.02
38 | CS(=O)(=O)N1[C@@H]2c3ccc(C4=CCCCC4)c(=O)n3C[C@H]1[C@H](CO)[C@H]2C(=O)N1CCOCC1 | inactive: 1.02
39 | C[C@@H]1CCCCO[C@H](CN(C)Cc2ccc(C(=O)O)cc2)[C@@H](C)CN([C@H](C)CO)C(=O)c2cc(NS(=O)(=O)c3ccc(F)cc3)ccc2O1 | inactive: 1.02
40 | C[C@@H]1CCCCO[C@H](CN(C)Cc2ccccc2)[C@@H](C)CN([C@@H](C)CO)C(=O)c2cc(NS(=O)(=O)c3ccc(F)cc3)ccc2O1 | inactive: 0.975
41 | C[C@@H]1CN([C@H](C)CO)C(=O)c2cccc(NC(=O)c3ccc(-c4nccs4)cc3)c2O[C@H]1CN(C)C(=O)Nc1ccccc1 | inactive: 1
42 | Cc1ccc(S(=O)(=O)N(C)C[C@@H]2Oc3ccc(NS(=O)(=O)c4c(C)noc4C)cc3CC(=O)N([C@@H](C)CO)C[C@@H]2C)cc1 | inactive: 1

Row | Structure (SMILES) | relative growth
43 | O=C1N[C@@H](c2ccccc2)COCc2cn(nn2)CC[C@@H](Cc2ccc(C(F)(F)F)cc2)C(=O)N[C@@H](c2ccccc2)COCc2cn(nn2)CC[C@H]1Cc1ccc(C(F)(F)F)cc1 | inactive: 0.991
44 | Cn1nnc2c1[C@H](COCC1CC1)CNC2 | inactive: 1.04
45 | CC[C@@]1(C)OC(=O)N(C)C1=O | inactive: 0.996
46 | C[C@H](CO)N1C[C@H](C)[C@H](CN(C)S(=O)(=O)c2ccc(F)cc2)Oc2c(NC(=O)C3CCOCC3)cccc2C1=O | inactive: 0.985
47 | O[C@H]1CCN(c2nccs2)C1 | inactive: 1.01
48 | CC(C)NC(=O)N(C)C[C@H]1OCCCC[C@H](C)Oc2ccc(NC(=O)Nc3ccc(C(F)(F)F)cc3)cc2C(=O)N([C@@H](C)CO)C[C@H]1C | inactive: 1.01
49 | C[C@H]1CN([C@@H](C)CO)C(=O)Cc2cc(NC(=O)CCC(F)(F)F)ccc2O[C@@H]1CN(C)Cc1ccc(C(=O)Nc2ccccc2N)cc1 | inactive: 0.99
50 | CCOC(=O)CNc1n[nH]c(=O)[nH]c1=O | inactive: 1.04
51 | CCNC(=O)CC[C@H](N)C(=O)O | inactive: 0.98
52 | CO[C@H]1CN(C)C(=O)c2cc(NS(=O)(=O)CC(F)(F)F)ccc2OC[C@@H](C)N(Cc2ccccn2)C[C@H]1C | inactive: 1.01
53 | COc1cccc(S(=O)(=O)N2C[C@@H](O)COC[C@H]3O[C@H](CC(=O)N4CCN(C)CC4)CC[C@@H]32)c1 | inactive: 1
54 | C[C@@H]1CN([C@H](C)CO)C(=O)c2cccc(NS(=O)(=O)c3cccs3)c2O[C@@H]1CN(C)C(=O)Nc1cccc2ccccc12 | inactive: 1.01
55 | C[C@@H]1CN([C@H](C)CO)C(=O)c2cc(NS(=O)(=O)c3ccccc3)ccc2O[C@@H](C)CCCCO[C@@H]1CN(C)C(=O)C1CCCCC1 | inactive: 1.01
56 | CC(C)Cn1c(=O)n(C)c(=O)c2[nH]cnc21 | inactive: 1.02
57 | C[C@@H]1CN([C@H](C)CO)C(=O)c2c(c3ccccc3n2C)-c2ccccc2CO[C@H]1CN(C)C(=O)c1cc(Cl)cc(Cl)c1 | inactive: 1.02
58 | C[C@H](CO)N1C[C@H](C)[C@H](CN(C)S(=O)(=O)c2ccc(F)cc2)Oc2cc(C#Cc3ccc(F)cc3)ccc2S1(=O)=O | inactive: 1.05
59 | C[C@@H]1CCCCO[C@@H](CN(C)Cc2ccc3c(c2)OCO3)[C@H](C)CN([C@H](C)CO)C(=O)c2cc(NS(=O)(=O)c3ccc(Cl)cc3)ccc2O1 | inactive: 1.02
60 | C[C@H](CO)N1C[C@H](C)[C@H](CN(C)S(=O)(=O)c2cn(C)cn2)Oc2cc(C#Cc3ccc(F)cc3)ccc2S1(=O)=O | inactive: 1.02
61 | C[C@@H]1CN([C@H](C)CO)C(=O)c2cc(NC(=O)Nc3ccc(C(F)(F)F)cc3)ccc2O[C@@H](C)CCCCO[C@H]1CN(C)C(=O)Nc1ccc(F)cc1 | inactive: 1.01
